In all, about 310,000 compounds went through this assay and about 14,000 (4.5%) showed an effect of 50% or more. The effect is printed as a negative number. The list shows a part of the results.
target: human ether-à-go-go-related gene (hERG) potassium channel (human, UniProt Q12809); assay: primary screen, population patch clamp on CHO cells stably expressing hERG
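Further: peak tail current of the secondary pulse compared with the same well before compound.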

Chain of human ether-à-go-go-related gene (hERG) potassium channel (Q12809 whole entry, looked up): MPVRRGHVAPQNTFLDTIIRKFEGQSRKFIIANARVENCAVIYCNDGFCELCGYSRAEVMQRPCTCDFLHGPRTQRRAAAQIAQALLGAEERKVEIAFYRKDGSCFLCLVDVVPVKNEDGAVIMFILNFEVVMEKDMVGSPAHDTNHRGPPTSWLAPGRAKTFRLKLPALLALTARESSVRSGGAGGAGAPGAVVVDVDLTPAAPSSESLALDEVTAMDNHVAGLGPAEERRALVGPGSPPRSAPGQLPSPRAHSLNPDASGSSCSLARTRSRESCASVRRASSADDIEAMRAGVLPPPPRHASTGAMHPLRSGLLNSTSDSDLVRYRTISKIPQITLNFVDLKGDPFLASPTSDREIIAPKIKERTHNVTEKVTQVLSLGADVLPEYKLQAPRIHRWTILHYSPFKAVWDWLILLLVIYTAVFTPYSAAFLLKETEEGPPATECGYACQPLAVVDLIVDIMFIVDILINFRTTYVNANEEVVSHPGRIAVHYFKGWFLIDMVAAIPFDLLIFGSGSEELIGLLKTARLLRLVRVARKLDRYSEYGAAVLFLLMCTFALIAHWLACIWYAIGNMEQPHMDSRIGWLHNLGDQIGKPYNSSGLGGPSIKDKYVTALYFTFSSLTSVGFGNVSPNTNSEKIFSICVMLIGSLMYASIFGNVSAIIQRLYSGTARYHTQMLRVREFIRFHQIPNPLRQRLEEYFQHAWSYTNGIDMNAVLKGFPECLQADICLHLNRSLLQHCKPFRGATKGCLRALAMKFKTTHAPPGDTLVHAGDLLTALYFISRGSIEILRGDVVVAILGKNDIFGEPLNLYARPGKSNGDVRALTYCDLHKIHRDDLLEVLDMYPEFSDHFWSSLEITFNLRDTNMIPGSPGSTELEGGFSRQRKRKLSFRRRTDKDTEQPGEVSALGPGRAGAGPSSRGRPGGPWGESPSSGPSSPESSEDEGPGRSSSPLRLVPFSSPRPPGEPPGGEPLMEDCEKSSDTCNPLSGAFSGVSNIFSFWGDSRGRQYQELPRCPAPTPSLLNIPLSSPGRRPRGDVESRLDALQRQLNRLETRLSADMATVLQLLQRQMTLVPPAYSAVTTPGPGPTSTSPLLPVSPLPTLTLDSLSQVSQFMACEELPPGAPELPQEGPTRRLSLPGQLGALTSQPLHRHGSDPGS

| SMILES | hERG current change (%, negative = inhibition) at 10uM |
| --- | --- |
| COc1ccc(N(CN2C(=O)c3ccccc3C2=O)C(=O)COc2ccc(Cl)cc2Cl)cc1 | 18.3% |
| CC(C)CN(C(=O)CCc1ccccc1Cl)c1c(N)n(Cc2ccccc2)c(=O)[nH]c1=O | -16.4% |
| Cc1cc(C)c(S(=O)(=O)N2CCN(C(=O)c3cc(=O)[nH]c4ccccc34)CC2)c(C)c1 | -32.5% |
| CC(=O)c1cccc(NC(=S)NC(=O)c2ccc(Br)cc2)c1 | 2.1% |
| Cc1n[nH]c(=S)n1-c1ccc(Cl)cc1 | 17.5% |
| O=C(COc1coc(CN2CCN(c3ccc(F)cc3)CC2)cc1=O)Nc1ccccc1 | 11.1% |
| CS(=O)(=O)N(CC(=O)N1CCCCCC1)Cc1ccc(Cl)cc1 | -7.82% |
| CCCCCP(=O)(O)c1ccccc1 | 0.253% |
| Cc1nn(C)c(C)c1C1Nc2ccccc2C(=O)N1O (centres unmarked) | 8.27% |
| O=C(CCN1CCCCC1)NNC(=S)NC(=O)c1ccc(Br)cc1 | 10.3% |
| O=C(CCCN1C(=O)/C(=C/c2cccs2)SC1=S)NNC(=O)c1cccnc1 | 17.2% |
| CCCCOc1ccc(C(=O)NC(=S)Nc2ccc(CN3CCOCC3)cc2)cc1 | 4.51% |
| Cc1cccc(-c2nnnn2-c2cccc(C)c2)c1 | -2.26% |
| COc1ccc(NC(=O)CSc2nc3ccccc3c(=O)n2-c2ccc3c(c2)OCO3)c(OC)c1 | -9.39% |
| O=C(NCCC1=CCCCC1)C1CCCN(S(=O)(=O)c2ccccc2)C1 (centres unmarked) | 6.97% |
| Cc1nc(N)sc1C(=O)Nc1ccccc1.Cl | 11.1% |
| O=c1cc(Nc2cccc(Br)c2)[nH]c(=O)[nH]1 | -11.5% |
| CCOC(=O)N1CCN(C(=O)c2ccc(CS(=O)(=O)c3c(Cl)cccc3Cl)o2)CC1 | -13.9% |
| CC1(C)CC(=O)C2=C(C1)OC1OC(=O)CC21C (centres unmarked) | 6.77% |
| CCOC(=O)C1(C)NC(c2ccc(OC)cc2OC)C2C(=O)N(c3cccc(OC)c3)C(=O)C21 (centres unmarked) | 8.78% |
| O=C(C1Cc2ccccc2CN1S(=O)(=O)c1ccc(F)cc1)N1CCOCC1 (centres unmarked) | -18% |
| CCCCc1nc(C(N)=O)c2[nH]c(=O)n(-c3ccc(OC)c(OC)c3)c2n1 | 10.7% |

| SMILES | hERG current change (%, negative = inhibition) at 10uM |
| --- | --- |
| Cc1ccccc1C(=O)Nc1cccc(N)c1 | -1.8% |
| O=C(NCc1ccccn1)Nc1ccccc1Cl | 25% |
| CCOC(=O)c1ccc(NC(=S)N(CCCN2CCCC(C)C2)Cc2cccs2)cc1 (centres unmarked) | -76.3% |
| CCN1CCN(CC(O)COc2ccc3c(C)cc(=O)oc3c2)CC1.Cl (centres unmarked) | -0.83% |
| COc1ccc(-n2nc([N+](=O)[O-])c(=NCCc3ccc(C)cc3)n2O)cc1 | -3.72% |
| COc1ccc(C(=O)OCc2c(-c3cccc(OC)c3)ncc3ccccc23)cc1 | 12.8% |
| N#C/C(=C\c1ccc(N2CCOCC2)c([N+](=O)[O-])c1)c1nc2ccccc2[nH]1 | -59.6% |
| Cc1nonc1CC(=O)N1CCCC(C(=O)c2cccc(C(F)(F)F)c2)C1 (centres unmarked) | -56.2% |
| S=C(Nc1cc(Cl)cc(Cl)c1)N1CCCC1 | 3.02% |
| CCCCCCOc1ccc(CN2CCN(CC)CC2)cc1 | -41.1% |
| Nc1nnc(CC(=O)N/N=C/c2cc([N+](=O)[O-])cc(Br)c2O)s1 | 11.7% |
| O=C(CN(C(=O)c1ccccc1Cl)N1C(=O)C2C3C=CC(C3)C2C1=O)c1cccs1 (centres unmarked) | 7.25% |
| CC(OC(=O)c1ccc(Cl)nc1)C(=O)NC(C)(C)C (centres unmarked) | 17.6% |
| COc1cc(SC#N)ccc1N=Cc1c(C)[nH]n(-c2ccc(C)c(C)c2)c1=O | -2.66% |
| O=C(O)C1C2CCC(O2)C1C(=O)NCc1ccccc1Br (centres unmarked) | 13.8% |
| CCOc1ccccc1N1C(=O)CC(Sc2nccc(C)n2)C1=O (centres unmarked) | 22% |
| COc1ccc(C2Nc3ccccc3C(=O)N2Cc2ccco2)cc1COc1ccc(NC(C)=O)cc1 (centres unmarked) | -24.9% |
| c1ccc(OCc2nn3c(Cn4nnc5ccccc54)nnc3s2)cc1 | -30.7% |
| CCOC(=O)N1CCC(Nc2ncnc3c2cnn3-c2ccccc2)CC1 | -12.1% |
| Cc1cc(C(F)(F)F)n(-c2nc(C(=O)Nc3cccnc3)cs2)n1 | -20% |
| Cc1ccc(N=Cc2cc(Br)cc(Cl)c2O)cc1 | 23.3% |
| Cc1ccc(NCc2nc(SCC(=O)Nc3ccccc3)n[nH]2)cc1 | 19.5% |
